Among the data in the antibiotic and cytotoxicity screens of Wong et al. (2023) are cytotoxicity call and growth inhibition call values, retold here.

The subject of one assay is HSkMC. Put plainly: cytotoxicity call (relative viability < 0.9). As to conditions: 10 µM.
The next assay has as its system S. aureus RN4220. Kind of assay: growth inhibition call (relative growth <= 0.2). As to conditions: 50 µM.

Structures are written as SMILES. Some of the results follow.

Take `Cn1c(=O)c2c(ncn2CC(=O)Nc2nc3ccccc3[nH]2)n(C)c1=O`: in the assay on HSkMC, the cytotoxicity call is “inactive”. In the assay with S. aureus RN4220, the growth inhibition call is “inactive”.
As for `C[C@H]1CCCCO[C@H](CN(C)CC2CCCCC2)[C@@H](C)CN([C@@H](C)CO)C(=O)c2cc(NS(=O)(=O)c3ccc(Cl)cc3)ccc2O1`, in the assay with HSkMC, the cytotoxicity call was “inactive”. For the same molecule, the growth inhibition call in the assay on S. aureus RN4220 was “inactive”.
`C[C@H]1CN([C@@H](C)CO)C(=O)c2cc(NC(=O)Nc3ccc(F)cc3)ccc2O[C@@H]1CN(C)Cc1ccc(Cl)c(Cl)c1`: the cytotoxicity call in the assay on HSkMC was “inactive”. The growth inhibition call in the assay with S. aureus RN4220 was “inactive”.
On to `C[C@H](CO)N1C[C@H](C)[C@H](CN(C)C(=O)Nc2ccc3c(c2)OCO3)Oc2ccc(NS(=O)(=O)c3cn(C)cn3)cc2CC1=O`, for which the cytotoxicity call in the assay on HSkMC is “inactive”. In addition, the growth inhibition call in the assay on S. aureus RN4220 is “inactive”.
As for `COc1ccc(NC(=O)Nc2ccc3c(c2)[C@H]2C[C@@H](CC(=O)N4CCN(C)CC4)O[C@H](CO)[C@H]2O3)cc1`, the cytotoxicity call in the assay with HSkMC was “inactive”. Moreover, the growth inhibition call in the assay on S. aureus RN4220 is “inactive”.
For `Cc1cc(O)c(C(=O)NC(C(=O)NC2C(=O)N3C(C(=O)O)=C(CSc4nnnn4C)CSC23)c2ccc(O)cc2)cn1` (stereo not given), the cytotoxicity call in the assay on HSkMC was “inactive”. Besides, in the assay on S. aureus RN4220, the growth inhibition call is “active”.
For `CN(C)CCCNC(=O)C[C@@H]1CC[C@@H]2[C@H](COc3ccc(NC(=O)c4ccc5c(c4)OCO5)cc3C(=O)N2C)O1`, the cytotoxicity call in the assay on HSkMC is “inactive”. The growth inhibition call in the assay with S. aureus RN4220 was “inactive”.
On to `O=C(O)CN(CCN(CC(=O)O)CC(=O)O)CCN(CC(=O)O)CC(=O)O`, for which the cytotoxicity call in the assay on HSkMC (human skeletal muscle cells) is “inactive”. Also, the growth inhibition call with S. aureus RN4220 is “inactive”.
As to `C[C@@H]1CN([C@H](C)CO)C(=O)CCCn2cc(nn2)CO[C@@H]1CN(C)C(=O)Nc1ccc2c(c1)OCCO2`, the cytotoxicity call with HSkMC is “inactive”. Further, the growth inhibition call with S. aureus RN4220 is “inactive”.
Take `C[C@H](CO)N1C[C@H](C)[C@@H](CN(C)C(=O)CCC(F)(F)F)OCCCC[C@H](C)Oc2ccc(NC(=O)C3CCCCC3)cc2C1=O`: in the assay with HSkMC, the cytotoxicity call was “inactive”. Also, in the assay with S. aureus RN4220, the growth inhibition call was “inactive”.
